# In paper PMC5800995 (Biochemical pharmacology, 2018):
# Target: wild-type human dopamine D2 receptor (D2LR) (Homo sapiens, UniProt P14416)
# Experiment: [^3H]spiperone binding, WT membranes
# Chain of UniProt P14416 (P14416 whole entry): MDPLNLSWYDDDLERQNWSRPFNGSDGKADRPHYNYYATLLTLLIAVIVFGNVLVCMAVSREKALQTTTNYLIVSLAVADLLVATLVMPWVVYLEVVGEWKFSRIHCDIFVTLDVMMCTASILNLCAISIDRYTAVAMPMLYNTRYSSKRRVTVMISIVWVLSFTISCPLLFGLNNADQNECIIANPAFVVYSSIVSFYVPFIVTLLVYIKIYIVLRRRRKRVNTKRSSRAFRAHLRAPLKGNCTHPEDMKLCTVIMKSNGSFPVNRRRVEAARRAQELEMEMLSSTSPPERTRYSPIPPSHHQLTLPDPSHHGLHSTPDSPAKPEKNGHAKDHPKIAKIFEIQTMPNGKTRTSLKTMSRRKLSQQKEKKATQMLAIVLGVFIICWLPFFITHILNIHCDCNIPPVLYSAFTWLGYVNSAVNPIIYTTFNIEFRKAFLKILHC
Kb (pKB Binding ([^3H]spiperone)) [µM],Compound,Kb (KB Binding ([^3H]spiperone)) [µM]
–,"CCCN1CCc2ccc(C#N)cc2C1 [MIPS1071, 2-propyl-1,2,3,4-tetrahydroisoquinoline-7-carbonitrile]",1.26
0.275,"CC(=O)N[C@H]1CC[C@H](CCN2CCc3ccc(C#N)cc3C2)CC1 [MIPS1059, N-((trans)-4-(2-(7-cyano-3,4-dihydroisoquinolin-2(1H)yl)ethyl)cyclohexyl)acetamide]",–
0.162,"N#Cc1ccc2c(c1)CN(CC[C@H]1CC[C@H](NC(=O)c3cc4cccc(F)c4[nH]3)CC1)CC2 [MIPS1868, N-((trans)-4-(2-(7-Cyano-3,4-dihydroisoquinolin-2(1H)-yl)ethyl)cyclohexyl)-7-fluoro-1H-indole-2-carboxamide]",–
